# Data taken from the supplement of paper PMC11876631.
# ± gives the standard deviation of the averaged measurements. Laboratory Escherichia coli strains with one amino-acid change in an essential protein, pooled on minimal glucose agar with carbenicillin or gentamicin at twice the control MIC (plus kanamycin and chloramphenicol for the plasmids), 48 h. Fold change of barcode share against drug-free plates; higher = less susceptible. Active = above 20 in both replicates (the paper's putatively resistant). '<' = one read or none on drug, '>' = one read or none on a drug-free plate. Shares are relative, so most strains fall below 1 when a few take over. Listed are strains with at least 15 reads on both drug-free plates, and hits; most hits rest on fewer reference reads. Replicate rank correlation about 0.5. Edits are read from barcodes.
# B1: plsC I8A (protein)
# chain: MLYIFRLAITVIYSILVCVFGSIYCLFSPRNPKHVATFGHMFGRLAPLFGLKVECRKPTDAESYGNAIYIANHQNNYDMVTASNIVQPPTVTVGKKSLLWIPFFGQLYWLTGNLLIDRNNRTKAHGTIAEVVNHFKKRRISIWMFPEGTRSRGRGLLPFKTGAFHAAIAAGVPIIPVCVSTTSNKINLNRLHNGLVIVEMLPPIDVSQYGKDQVRELAAHCRSIMEQKIAELDKEVAEREAAGKV
# B2: plsC I9D (protein)
# chain: MLYIFRLIDTVIYSILVCVFGSIYCLFSPRNPKHVATFGHMFGRLAPLFGLKVECRKPTDAESYGNAIYIANHQNNYDMVTASNIVQPPTVTVGKKSLLWIPFFGQLYWLTGNLLIDRNNRTKAHGTIAEVVNHFKKRRISIWMFPEGTRSRGRGLLPFKTGAFHAAIAAGVPIIPVCVSTTSNKINLNRLHNGLVIVEMLPPIDVSQYGKDQVRELAAHCRSIMEQKIAELDKEVAEREAAGKV
# B3: plsC I8W (protein)
# chain: MLYIFRLWITVIYSILVCVFGSIYCLFSPRNPKHVATFGHMFGRLAPLFGLKVECRKPTDAESYGNAIYIANHQNNYDMVTASNIVQPPTVTVGKKSLLWIPFFGQLYWLTGNLLIDRNNRTKAHGTIAEVVNHFKKRRISIWMFPEGTRSRGRGLLPFKTGAFHAAIAAGVPIIPVCVSTTSNKINLNRLHNGLVIVEMLPPIDVSQYGKDQVRELAAHCRSIMEQKIAELDKEVAEREAAGKV
# B4: plsC I23Q (protein)
# chain: MLYIFRLIITVIYSILVCVFGSQYCLFSPRNPKHVATFGHMFGRLAPLFGLKVECRKPTDAESYGNAIYIANHQNNYDMVTASNIVQPPTVTVGKKSLLWIPFFGQLYWLTGNLLIDRNNRTKAHGTIAEVVNHFKKRRISIWMFPEGTRSRGRGLLPFKTGAFHAAIAAGVPIIPVCVSTTSNKINLNRLHNGLVIVEMLPPIDVSQYGKDQVRELAAHCRSIMEQKIAELDKEVAEREAAGKV
# B5: plsC I8D (protein)
# chain: MLYIFRLDITVIYSILVCVFGSIYCLFSPRNPKHVATFGHMFGRLAPLFGLKVECRKPTDAESYGNAIYIANHQNNYDMVTASNIVQPPTVTVGKKSLLWIPFFGQLYWLTGNLLIDRNNRTKAHGTIAEVVNHFKKRRISIWMFPEGTRSRGRGLLPFKTGAFHAAIAAGVPIIPVCVSTTSNKINLNRLHNGLVIVEMLPPIDVSQYGKDQVRELAAHCRSIMEQKIAELDKEVAEREAAGKV
# B6: plsC I8P (protein)
# chain: MLYIFRLPITVIYSILVCVFGSIYCLFSPRNPKHVATFGHMFGRLAPLFGLKVECRKPTDAESYGNAIYIANHQNNYDMVTASNIVQPPTVTVGKKSLLWIPFFGQLYWLTGNLLIDRNNRTKAHGTIAEVVNHFKKRRISIWMFPEGTRSRGRGLLPFKTGAFHAAIAAGVPIIPVCVSTTSNKINLNRLHNGLVIVEMLPPIDVSQYGKDQVRELAAHCRSIMEQKIAELDKEVAEREAAGKV
# B7: plsC I23A (protein)
# chain: MLYIFRLIITVIYSILVCVFGSAYCLFSPRNPKHVATFGHMFGRLAPLFGLKVECRKPTDAESYGNAIYIANHQNNYDMVTASNIVQPPTVTVGKKSLLWIPFFGQLYWLTGNLLIDRNNRTKAHGTIAEVVNHFKKRRISIWMFPEGTRSRGRGLLPFKTGAFHAAIAAGVPIIPVCVSTTSNKINLNRLHNGLVIVEMLPPIDVSQYGKDQVRELAAHCRSIMEQKIAELDKEVAEREAAGKV
# B8: plsC I8Q (protein)
# chain: MLYIFRLQITVIYSILVCVFGSIYCLFSPRNPKHVATFGHMFGRLAPLFGLKVECRKPTDAESYGNAIYIANHQNNYDMVTASNIVQPPTVTVGKKSLLWIPFFGQLYWLTGNLLIDRNNRTKAHGTIAEVVNHFKKRRISIWMFPEGTRSRGRGLLPFKTGAFHAAIAAGVPIIPVCVSTTSNKINLNRLHNGLVIVEMLPPIDVSQYGKDQVRELAAHCRSIMEQKIAELDKEVAEREAAGKV
# B9: plsC I23W (protein)
# chain: MLYIFRLIITVIYSILVCVFGSWYCLFSPRNPKHVATFGHMFGRLAPLFGLKVECRKPTDAESYGNAIYIANHQNNYDMVTASNIVQPPTVTVGKKSLLWIPFFGQLYWLTGNLLIDRNNRTKAHGTIAEVVNHFKKRRISIWMFPEGTRSRGRGLLPFKTGAFHAAIAAGVPIIPVCVSTTSNKINLNRLHNGLVIVEMLPPIDVSQYGKDQVRELAAHCRSIMEQKIAELDKEVAEREAAGKV
# Target: Escherichia coli (laboratory strain)
# Assay: barcode share on antibiotic plates over drug-free plates; higher = less susceptible
# Conditions: antibiotic: carbenicillin; 2× MIC (3.1 µg/mL)
# Procedure: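 A pool of E. coli strains, each edited to carry one amino-acid change in an essential protein, was grown for 48 h on minimal glucose agar with or without antibiotic; strain barcodes were sequenced; mean of two replicates.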
row,Protein,fold change of barcode share
1,B1,0.222 ± 0.033
2,B2,0.398 ± 0.21
3,B3,1.85 ± 1.1
4,B4,0.304 ± 0.049
5,B5,151 [active]
6,B6,0.293 ± 0.059
7,B7,0.307 ± 0.14
8,B8,0.365 ± 0.015
9,B9,0.334 ± 0.093

# Same assay, conditions: antibiotic: gentamicin; 2× MIC (MIC 0.45 µg/mL)
row,Protein,fold change of barcode share
1,B1,< 0.00477
2,B3,< 0.00571
3,B4,< 0.00669
4,B6,< 0.00715
5,B7,< 0.0121
6,B8,< 0.00788
7,B9,0.00732 ± 0.0047
